Two molecules from US20260174887A1 (published 2026) can be followed below.

In the test the target is T1, recombinant extracellular domain of human TROP2 (human, UniProt P09758 27-274).
T1 construct: extracellular domain; also called Human Trop 2 ECD; Trop2 ECD
T1 sequence (looked up): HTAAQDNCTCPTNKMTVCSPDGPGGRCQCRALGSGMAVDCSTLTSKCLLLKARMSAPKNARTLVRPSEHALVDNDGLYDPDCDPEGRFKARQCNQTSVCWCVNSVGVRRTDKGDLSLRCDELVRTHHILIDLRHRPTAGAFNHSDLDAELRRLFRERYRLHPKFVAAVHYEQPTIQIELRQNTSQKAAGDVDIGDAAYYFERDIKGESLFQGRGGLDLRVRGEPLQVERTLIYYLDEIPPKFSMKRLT
Put plainly: ELISA, Trop 2 ECD coated at 0.5 ug/mL, anti-human Fc HRP. The method, then: Human Trop 2 ECD at concentration of 0.5 μg/mL was coated on 96-well plates at 4° C. for overnight. The plates were then blocked with 3% BSA-PBST for 1 h at room temperature. […] After incubation goat anti-human FC secondary antibody (HRP) (Sinobiological, SSA001) was added at a ratio of 1:100000 and incubated at room temperature for 60 min again. Following the wash, the plate was treated with TMB solution (Sigma, T0440) as an HRP substrate, and the reaction was stopped with 1 M H₂SO₄. The absorbance for each well was detected at 450 nm wavelength.
In general terms: In an ELISA, binding on a coated surface is turned into a signal by an enzyme label.

B1: ADC-2 (other)
heavy: QVQLQQSGSELKKPGASVKVSCKASGYTFTNYGMNWVKQAPGQGLKWMGWINTYTGEPTYTDDFKGRFAFSLDTSVSTAYLQISSLKADDTAVYFCARGGFGSSYWYFDVWGQGSLVTVSSASTKGPSVFPLAPSSKSTSGGTAALGCLVKDYFPEPVTVSWNSGALTSGVHTFPAVLQSSGLYSLSSVVTVPSSSLGTQTYICNVNHKPSNTKVDKRV[human IgG1 Fc not shown]
light: DIQLTQSPSSLSASVGDRVSITCKASQDVSIAVAWYQQKPGKAPKLLIYSASYRYTGVPDRFSGSGSGTDFTLTISSLQPEDFAVYYCQQHYITPLTFGAGTKVEIKRTVAAPSVFIFPPSDEQLKSGTASVVCLLNNFYPREAKVQWKVDNALQSGNSQESVTEQDSKDSTYSLSSTLTLSKADYEKHKVYACEVTHQGLSSPVTKSFNRGECGALPET
modifications: C-terminal GG of LPETGG removed by Sortase A; the T of LPET is joined by a peptide bond to the G3 of Linker-Payload 3 (drug-linker)
notes: Antibody-drug conjugate of GQhRS7 with Linker-Payload 3
In the case of B1, the binding result is given as “binds”.

B2: Trodelvy (other)
heavy: QVQLQQSGSELKKPGASVKVSCKASGYTFTNYGMNWVKQAPGQGLKWMGWINTYTGEPTYTDDFKGRFAFSLDTSVSTAYLQISSLKADDTAVYFCARGGFGSSYWYFDVWGQGSLVTVSSASTKGPSVFPLAPSSKSTSGGTAALGCLVKDYFPEPVTVSWNSGALTSGVHTFPAVLQSSGLYSLSSVVTVPSSSLGTQTYICNVNHKPSNTKVDKRV[human IgG1 Fc not shown]
light: DIQLTQSPSSLSASVGDRVSITCKASQDVSIAVAWYQQKPGKAPKLLIYSASYRYTGVPDRFSGSGSGTDFTLTISSLQPEDFAVYYCQQHYITPLTFGAGTKVEIKRTVAAPSVFIFPPSDEQLKSGTASVVCLLNNFYPREAKVQWKVDNALQSGNSQESVTEQDSKDSTYSLSSTLTLSKADYEKHKVYACEVTHQGLSSPVTKSFNRGEC
modifications: drug-linker (SN-38) conjugated; sites not stated
notes: also called IMMU-132
In the case of B2, the binding result was “binds”.
